Reference: the supplement of paper PMC7125110
± gives the standard error. Variants at the background level are over-represented here.

B1: glmS ribozyme (parent)
chain: AUAAAAGCGCCAGAACUACAGAAAUGUAGUUGACGAGGAGGAGGUUUAUCGAAUUUUCGGCGGAUGCCUCCAAA

Experiments:
Settings in all cases: with glucosamine-6-phosphate
glucosamine-6-phosphate [1] = variants of: B1; experiment: self-cleavage kobs at 640 uM GlcN6P; higher = faster cleavage; RNA array
Summary of the method: (§1)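 On sequenced MiSeq chips, barcoded ribozyme variants were made in situ by E. coli RNA polymerase and followed at 37 °C through a hybridised Cy3 probe. Glucosamine-6-phosphate was flowed in at 40 μM to 10 mM in HEPES/KCl/Mg(OAc)2 buffer. Exponential fits to normalised per-tile medians gave kobs, and weighted Michaelis–Menten fits gave kcat and KM.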

glucosamine-6-phosphate [2] = variants of: B1; experiment: self-cleavage kobs at 160 uM GlcN6P; higher = faster cleavage; RNA array
Summary of the method: as §1

glucosamine-6-phosphate [3] = variants of: B1; experiment: self-cleavage kobs at 2500 uM GlcN6P; higher = faster cleavage; RNA array
Summary of the method: as §1

glucosamine-6-phosphate [4] = variants of: B1; experiment: self-cleavage kobs at 10000 uM GlcN6P; higher = faster cleavage; RNA array
Summary of the method: as §1

Variant	self-cleavage kobs at 640 uM GlcN6P (glucosamine-6-phosphate [1])	self-cleavage kobs at 160 uM GlcN6P (glucosamine-6-phosphate [2])	self-cleavage kobs at 2500 uM GlcN6P (glucosamine-6-phosphate [3])	self-cleavage kobs at 10000 uM GlcN6P (glucosamine-6-phosphate [4])
AUAAAAGCGCCAUAACUACAGAAAUGUAGUUGACGAGGAAGACGUUUACCGAAUUUUCGGCGGAUGCGUCCAAA [G13U G40A G43C U49C C68G]	< 1e-05 s⁻¹			
AUAAAAGCGCCAUAACUACAGAAAUGUAGUUGACCAGCAGGACGUUUAUCGAAUUUUCGGCGGAUGACUCCAAA [G13U G35C G38C G43C C67A]	< 1e-05 s⁻¹			
AUAAAAGCGCCAGCACUACAGAAAUGUAGUUUACGAGGAGGAGGUUUAUCGAAUUUUCGGCGGAUGCCUCCAAA [A14C G32U]	0.000206 ± 3e-05 s⁻¹	6.08e-05 ± 2.1e-05 s⁻¹	0.000576 ± 7.9e-05 s⁻¹	0.00103 ± 0.00012 s⁻¹
AUAAAAGCGCCAUAACUACAGAAAUGUAGUUAACGAGGAGGAGGUUUAUCGAAUUUUCGGCGGAUGCCUACAAA [G13U G32A C70A]	5.59e-05 ± 2.4e-05 s⁻¹		0.000106 ± 3.2e-05 s⁻¹	
AUAAAAGCGCCAUAACUACAGAAAUGUAGUUCUCGAGGAGGAGGUUUAUCGAAUUUUCGGCGGAUGCGUCUAAA [G13U G32C A33U C68G C71U]	< 1e-05 s⁻¹	< 1e-05 s⁻¹	< 1e-05 s⁻¹	< 1e-05 s⁻¹
AUAAAAGCGCCAUAACUACAGAAAUGUAUUUGACGAGGAAGAGGUUUAUUGAAUUUUCGGCGGAUGCCUCCAAA [G13U G29U G40A C50U]	< 1e-05 s⁻¹		< 1e-05 s⁻¹	< 1e-05 s⁻¹
AUAAAAGCGCCACAACUACAGAAAUGUAGUUGACGAGGAGGAGGUAUAUCGAAUUUUCGGCGGAUGGCUCCAAA [G13C U46A C67G]	< 1e-05 s⁻¹			
AUAAAAGCGCCAGCACUACAGAAAUGUAGUUGACGAGGAGGAGGUUUAUCGAGUUUUCGGCGGUUGCCUCCAAA [A14C A53G A64U]	< 1e-05 s⁻¹	< 1e-05 s⁻¹		
AUAAAAGCGCCAAAACUACAGAAAUGUAGUUGACGAGGAUGAGGUUUAUCGAAUUUUCGGCGGACGCCUCCAAA [G13A G40U U65C]	< 1e-05 s⁻¹			
AUAAAAGCGCCAGCACUACAGAAAUGUAGUUGAUGAGGAGGAGGUUUAUCGAAUUUUCGGCGGAUGCCUCCAAA [A14C C34U]	< 1e-05 s⁻¹	< 1e-05 s⁻¹	< 1e-05 s⁻¹	< 1e-05 s⁻¹
AUAAAAGCGCCACAACUACAGAAAUGUAGUUGACGAGGAGGAGGUUUAUCGAAUUUUCGGGGGAUGCUUCCAAA [G13C C61G C68U]	< 1e-05 s⁻¹		< 1e-05 s⁻¹	
AUAAAAGCGCCAGCACUACAGAAAUGUAGUUCACUAGGAGGAGGUUUAUCGAAUUUACGGCGGAUGCCUCCAAA [A14C G32C G35U U57A]	< 1e-05 s⁻¹	< 1e-05 s⁻¹		
AUAAAAGCGCCAUAACUACAGAAAUGUAGUUGACGAGGAGGAGGUUUAUCGAAUUUUCGGCGAAUGCCUCUAAA [G13U G63A C71U]	< 1e-05 s⁻¹		< 1e-05 s⁻¹	
AUAAAAGCGCCAGCACUACAGAAAUGUAGUUAAAGAGGAGGAGGUUUAUCGAAUUUUCGGCGGAUGCCUCCAAA [A14C G32A C34A]	< 1e-05 s⁻¹		< 1e-05 s⁻¹	
AUAAAAGCGCCACAACUACAGAAAUGUAGUUGACGAGGAGGAGGUUUAUCGGAUUUUCGGCGGAUGCCUGCAAA [G13C A52G C70G]	0.000164 ± 5.2e-05 s⁻¹	0.000297 ± 0.00012 s⁻¹	7.21e-05 ± 3e-05 s⁻¹	
AUAAAAGCGCCAGCACUACAGAAAUGUAGUUGACGAGGAGGAGGUUUAUCGAAUUUUCGGCGGAUGCGUCCAAA [A14C C68G]	4.49e-05 ± 1.5e-05 s⁻¹			2.58e-05 ± 8.4e-06 s⁻¹
AUAAAAGCGCCAGCGCUACAGAAAUGUAGUUGACGGGGAGGAGGAUUAACGAAUUCUCGGCGGAUGCCUCCAAA [A14C A15G A36G U45A U49A U56C]	< 1e-05 s⁻¹		< 1e-05 s⁻¹	
